This is an account of results in the supplement of paper PMC4604168 (melanoma cell lines).

The list shows a part of the results. Repeats are few or missing, and single values can be far off.
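Also: cell number obtained by counting DAPI-stained nuclei in high-throughput microscope images with image analysis software, screen run in 1,536-well plates.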

For this experiment, the system named is SkMel2. The experiment is described as follows: cell count relative to DMSO control; melanoma cells; higher = more viable cells. Conditions: library dose: low library concentration; 72 h.
For `O=C(CCCCCCC(=O)Nc1ccccc1)NO` [vorinostat] + Cn1cncc1[C@@](N)(c1ccc(Cl)cc1)c1ccc2c(c1)c(-c1cccc(Cl)c1)cc(=O)n2C [tipifarnib] (first compound 0.08 µM, partner dose 0.01 µM), the cell count was found to be 79.8%.

The compound `O=C(CCCCCCC(=O)Nc1ccccc1)NO` [vorinostat] + O=C(Nc1cccc(Cl)c1)Nc1ncc(CCNc2ncnc3ccsc23)s1 [SNS314] (first compound 0.08 µM, partner dose 0.0008 µM) gave a cell count of 112%.

Turning to `Nc1cccc2c1CN(C1CCC(=O)NC1=O)C2=O` (centres undefined) [lenalidomide] + Cn1cncc1[C@@](N)(c1ccc(Cl)cc1)c1ccc2c(c1)c(-c1cccc(Cl)c1)cc(=O)n2C [tipifarnib] (first compound 1 µM, partner dose 0.01 µM), the cell count was 69.2%.

For `COCC[n+]1c2c(n(Cc3cnccn3)c1C)C(=O)c1ccccc1C2=O` + CC(C)(C)c1cnc(CSc2cnc(NC(=O)C3CCNCC3)s2)o1 [SNS-032] (first compound 0.0004 µM, partner dose 0.01 µM), the cell count is 80.5%.

Take `OCc1c[nH]c2ccccc12` [Indole-3-carbinol] + COC(=O)c1sccc1S(=O)(=O)Nc1ccc(Nc2ccccc2)cc1OC [GSK0660] (first compound 0.8 µM, partner dose 1 µM): the cell count was found to be 107%.

Take `COCC[n+]1c2c(n(Cc3cnccn3)c1C)C(=O)c1ccccc1C2=O` + CN(NC(=O)CC(=O)NN(C)C(=S)c1ccccc1)C(=S)c1ccccc1 [STA4783] (first compound 0.0004 µM, partner dose 0.006 µM): the cell count turned out to be 77.8%.

In the case of `O=C(CCCCCCC(=O)Nc1ccccc1)NO` [vorinostat] + CO[C@@H]1[C@H](N(C)C(=O)c2ccccc2)C[C@H]2O[C@]1(C)n1c3ccccc3c3c4c(c5c6ccccc6n2c5c31)C(=O)NC4 [Midostaurin] (first compound 0.08 µM, partner dose 0.08 µM), the cell count was determined as 77%.

For `OCc1c[nH]c2ccccc12` [Indole-3-carbinol] + O=S(=O)(c1ccccc1)N(CC(F)(F)F)c1ccc(C(O)(C(F)(F)F)C(F)(F)F)cc1 [T0901317] (first compound 0.8 µM, partner dose 1.4 µM), the cell count is 98.5%.

As to `C#Cc1cccc(Nc2ncnc3cc(OCCOC)c(OCCOC)cc23)c1` [erlotinib] + CC(C)(C)c1cnc(CSc2cnc(NC(=O)C3CCNCC3)s2)o1 [SNS-032] (first compound 0.8 µM, partner dose 0.01 µM), the cell count worked out at 105%.

Take `OCc1c[nH]c2ccccc12` [Indole-3-carbinol] + Oc1cc(-c2nc(-c3ccccc3)[nH]c2-c2ccncc2)ccc1Cl [L779450] (first compound 0.8 µM, partner dose 0.2 µM): the cell count is 104%.

`Clc1ccc(Nc2nnc(Cc3ccncc3)c3ccccc23)cc1` [vatalanib] + O=C1NC(=O)/C(=C/c2ccc(-c3ccc(F)cc3O)o2)S1 [AS252424] (first compound 2 µM, partner dose 1 µM) returned a cell count of 112%.

On to `C#Cc1cccc(Nc2ncnc3cc(OCCOC)c(OCCOC)cc23)c1` [erlotinib] + CN(C)S(=O)(=O)c1ccc2c(c1)/C(=C/c1cc3c([nH]1)CCCC3)C(=O)N2 [SU6656] (first compound 0.8 µM, partner dose 0.4 µM), for which the cell count came to 93%.

In turn, `Clc1ccc(Nc2nnc(Cc3ccncc3)c3ccccc23)cc1` [vatalanib] + O=C(Nc1cccc(Cl)c1)Nc1ncc(CCNc2ncnc3ccsc23)s1 [SNS314] (first compound 2 µM, partner dose 0.0008 µM) had a cell count of 86.8%.

In turn, `C#Cc1cccc(Nc2ncnc3cc(OCCOC)c(OCCOC)cc23)c1` [erlotinib] + Cc1ccc(NC(=O)c2cccc(N(C)C)c2)cc1NC(=O)c1ccc(O)cc1 [ZM336372] (first compound 0.8 µM, partner dose 2 µM) displayed a cell count of 112%.

`Clc1ccc(Nc2nnc(Cc3ccncc3)c3ccccc23)cc1` [vatalanib] + CC1(C)NC(=O)N(c2ccc([N+](=O)[O-])c(C(F)(F)F)c2)C1=O [nilutamide] (first compound 2 µM, partner dose 1 µM) registered a cell count of 95.2%.

In turn, `Clc1ccc(Nc2nnc(Cc3ccncc3)c3ccccc23)cc1` [vatalanib] + Cc1ccc(NC(=O)c2cccc(N(C)C)c2)cc1NC(=O)c1ccc(O)cc1 [ZM336372] (first compound 2 µM, partner dose 2 µM) came in with a cell count of 97%.

In turn, `C#Cc1cccc(Nc2ncnc3cc(OCCOC)c(OCCOC)cc23)c1` [erlotinib] + COc1cc2c(Oc3ccc4[nH]c(C)cc4c3F)ncnc2cc1OCCCN1CCCC1 [cediranib] (first compound 0.8 µM, partner dose 0.4 µM) came in with a cell count of 109%.

`Clc1ccc(Nc2nnc(Cc3ccncc3)c3ccccc23)cc1` [vatalanib] + CCc1ccc(CCOc2ccc(CC3SC(=O)NC3=O)cc2)nc1 [pioglitazone] (first compound 2 µM, partner dose 2 µM) came in with a cell count of 95.4%.

In turn, `O=C(CCCCCCC(=O)Nc1ccccc1)NO` [vorinostat] + COc1cc2c(Oc3ccc4[nH]c(C)cc4c3F)ncnc2cc1OCCCN1CCCC1 [cediranib] (first compound 0.08 µM, partner dose 0.4 µM) displayed a cell count of 96.1%.

Consider `Nc1cccc2c1CN(C1CCC(=O)NC1=O)C2=O` (centres undefined) [lenalidomide] + O=C(Nc1cccc(Cl)c1)Nc1ncc(CCNc2ncnc3ccsc23)s1 [SNS314] (first compound 1 µM, partner dose 0.0008 µM), for which the cell count stood at 100%.

Take `Nc1cccc2c1CN(C1CCC(=O)NC1=O)C2=O` (centres undefined) [lenalidomide] + O=C(CCCCCCC(=O)Nc1ccccc1)NO [vorinostat] (first compound 1 µM, partner dose 0.08 µM): the cell count stood at 102%.

Consider `COCC[n+]1c2c(n(Cc3cnccn3)c1C)C(=O)c1ccccc1C2=O` + COc1cc(Nc2ncc(F)c(Nc3ccc4c(n3)NC(=O)C(C)(C)O4)n2)cc(OC)c1OC [Tamatinib] (first compound 0.0004 µM, partner dose 0.4 µM), for which the cell count was found to be 90.3%.

Take `O=C(CCCCCCC(=O)Nc1ccccc1)NO` [vorinostat] + O=C(O)c1ccc(-c2c[nH]c3ncc(-c4ccccc4)cc23)cc1C1CCCC1 [GSK650394] (first compound 0.08 µM, partner dose 0.16 µM): the cell count turned out to be 90.9%.

Regarding `Clc1ccc(Nc2nnc(Cc3ccncc3)c3ccccc23)cc1` [vatalanib] + O=C(O)C(=O)Nc1sc2c(c1C(=O)O)CCNC2 [TCS401] (first compound 2 µM, partner dose 1.66667 µM), the cell count came out at 87.4%.

The compound `Clc1ccc(Nc2nnc(Cc3ccncc3)c3ccccc23)cc1` [vatalanib] + COc1ccc(COc2ccc(Cc3cnc(N)nc3N)cc2OC)cc1 [GW2580] (first compound 2 µM, partner dose 1 µM) displayed a cell count of 75.4%.

With `Clc1ccc(Nc2nnc(Cc3ccncc3)c3ccccc23)cc1` [vatalanib] + Oc1cc(-c2nc(-c3ccccc3)[nH]c2-c2ccncc2)ccc1Cl [L779450] (first compound 2 µM, partner dose 0.2 µM), the cell count worked out at 108%.

The compound `Clc1ccc(Nc2nnc(Cc3ccncc3)c3ccccc23)cc1` [vatalanib] + O=C(O)c1ccc(-c2c[nH]c3ncc(-c4ccccc4)cc23)cc1C1CCCC1 [GSK650394] (first compound 2 µM, partner dose 0.16 µM) came in with a cell count of 93.4%.

In the case of `OCc1c[nH]c2ccccc12` [Indole-3-carbinol] + Cc1cc([N+](=O)[O-])ccc1NS(=O)(=O)c1cc(Cl)ccc1Cl [FH535] (first compound 0.8 µM, partner dose 1 µM), the cell count came out at 92.1%.

In turn, `Clc1ccc(Nc2nnc(Cc3ccncc3)c3ccccc23)cc1` [vatalanib] + CC(C)(C)c1cnc(CSc2cnc(NC(=O)C3CCNCC3)s2)o1 [SNS-032] (first compound 2 µM, partner dose 0.01 µM) yielded a cell count of 88.3%.

As for `O=C(CCCCCCC(=O)Nc1ccccc1)NO` [vorinostat] + C[C@@H]1CCN(C(=O)CC#N)C[C@@H]1N(C)c1ncnc2[nH]ccc12 [CP690550] (first compound 0.08 µM, partner dose 1 µM), the cell count was 105%.

Regarding `Cn1c(Nc2ccc(C(F)(F)F)cc2)nc2cc(Oc3ccnc(-c4ncc(C(F)(F)F)[nH]4)c3)ccc21` + O=C(O)c1ccc(-c2c[nH]c3ncc(-c4ccccc4)cc23)cc1C1CCCC1 [GSK650394] (first compound 0.08 µM, partner dose 0.16 µM), the cell count is 78.1%.

Consider `OCc1c[nH]c2ccccc12` [Indole-3-carbinol] + CCN(CC)CCCCNc1ncc2cc(-c3cc(OC)cc(OC)c3)c(NC(=O)NC(C)(C)C)nc2n1 [PD173074] (first compound 0.8 µM, partner dose 0.1 µM), for which the cell count came out at 98.3%.

On to `Clc1ccc(Nc2nnc(Cc3ccncc3)c3ccccc23)cc1` [vatalanib] + O=C(Nc1ccccc1)c1cc([N+](=O)[O-])ccc1Cl [GW9662] (first compound 2 µM, partner dose 2 µM), for which the cell count turned out to be 97.6%.

`Cn1c(Nc2ccc(C(F)(F)F)cc2)nc2cc(Oc3ccnc(-c4ncc(C(F)(F)F)[nH]4)c3)ccc21` + C=CCn1c(=O)c2cnc(Nc3ccc(N4CCN(C)CC4)cc3)nc2n1-c1cccc(C(C)(C)O)n1 [MK1775] (first compound 0.08 µM, partner dose 0.02 µM): the cell count was 67.8%.
